This note sets out measurements from the RNAGym collection of RNA variant scans (doi:10.7554/elife.90254).

The source gives no read counts; variants with many changes may rest on few reads.

First the molecules themselves.
B1: LINE1-mini (parent)
chain: GGCAGAGCUCAACACAGCGUGGCAAAGUGGCUGUGGCUAGACUGCC

Variants of B1 are the subject of the data set. The experiment in a line: self-cleavage, relative activity (ratio to wild type); higher = more cleavage; in vitro, sequencing; the parent is a self-cleaving ribozyme.
For the variant GGCAUAGUUCAACAAAGCGUGGCAAAGUGGUUGUGGCUAGACUGCC [G5U C8U C15A C31U], the self-cleavage worked out at 0.15.
In the case of GGCAUAGCUCAACAGAGCGUAGUAAAGUGGCUGUUGCUAGACUGCC [G5U C15G G21A C23U G35U] it was 0.04; in that of GGCAUAGCUUAACACAGCGUGGCAAGGUGGCUGUGGCUAGACUGCC [G5U C10U A26G], 0.02.
In the case of GGCAUAGCUAAACACAGCGUGGCAAAGUGACUGUCGCUAGACUGCC [G5U C10A G30A G35C] it was 0.03.
For GGCAUAGCUAUACACAGCGUGGCAAAGUGGCUGUGGCGAGACUGCC [G5U C10A A11U U38G], the self-cleavage came out at 0.01.
In the case of GGCAUAGCUCAAGACAGAGUGGCAAAGUGGCUGUGGCUAGACUGCC [G5U C13G C18A] it was 0.03; in that of GGCAUAGCUCAACAGAGCGAGGCAAAGUGGCUGUGUCUAGACUGCA [G5U C15G U20A G36U C46A], 0.04.
As for GGCAUAGCUCAAGACAGCGUGGCAAAGUGGCUGCGGCUAGACUGCC [G5U C13G U34C], the figure is 0.03.
On to GGCAUAGCUCAAGACAGCGUGGCAAAGUGGCUGGGGCUAGACUGCC [G5U C13G U34G], for which the self-cleavage was determined as 0.05.
In the case of GGCAUAGCUCAACAUAGCGUGGCAAGGUGGCUGUGGCCAGACUGCU [G5U C15U A26G U38C C46U] it was 0.02; in that of GGCAUAGUUCAACACGGCGUGGCAAAGUGGCUGUGGCUAGACUACC [G5U C8U A16G G44A], 0.13.
As for GGCAUAGCUCAACAAAGCGUUGCAAAGUGGAUGCGGCUAGACUGCC [G5U C15A G21U C31A U34C], the figure is 0.1.
In the case of GGCAUAGCUCAACAAAGCGUGGCGAAGUCGCUGUGGCUAGACUGCC [G5U C15A A24G G29C] it was 0.03.
Take GGCAUAGCUAAACACAGCGUGGCAAAGUGGCUGUGGUUAGACUGCC [G5U C10A C37U]: the self-cleavage was 0.02.
On to GGCAUAGGUCAACACAGCGUGGCAAAGUGACCGUGGCUAGACUGCC [G5U C8G G30A U32C], for which the self-cleavage is 0.07.
Regarding GGCAUAGCUGAACACAGCGUGUCAAUGUGGCUGUGGCUAGACUGCC [G5U C10G G22U A26U], the self-cleavage is 0.02.
Take GGCAUAGCUAACCACAGCGUGGCGAAGUGGUUGUGGCUAGACUGCC [G5U C10A A12C A24G C31U]: the self-cleavage worked out at 0.
In the case of GGCAUAGCUCAACAUAGCGUGGCAGAGUGGCUGUGGCUAGACUGCC [G5U C15U A25G] it was 0.13.
For the variant GGCAUAGCUCAACAGAGCGUGACAAAGUGUCUGUGGGUAGACUGCC [G5U C15G G22A G30U C37G], the self-cleavage was 0.06.
In the case of GGCAUAGCUCAACAUACCGGGGCAAAGUGGCUGUGGCUAGACUGCC [G5U C15U G17C U20G] it was 0.03.
For the variant GGCAUAGCUGAACACAGCGUGGCAAAGAUGCUGUGGCUAGACUGCC [G5U C10G U28A G29U], the self-cleavage amounted to 0.03.
In the case of GGCAUAGCUCAACAAAGCGAGGCAAAGUGGCUGUGACUAGACUGCC [G5U C15A U20A G36A] it was 0.05; in that of GGCAUAGCUAAAUACAGCGUGUCAAAGUGGCUGUGGUUAGACUGCC [G5U C10A C13U G22U C37U], 0.03; in that of GGCAUAGCUCAAUACAUCGUCGCAAAGUGGCUGUGGCUAGACUGAG [G5U C13U G17U G21C C45A C46G], 0.02.
For the variant GGCAUAGCUCAACAGAGCGUGGCAAAGUGGCUGUGGCUAGCCUGCC [G5U C15G A41C], the self-cleavage was found to be 0.07.
Consider GGCAUAGCUAAAAACAUCGUGGCAAAGUUGCUGUGGCUAGCCUGCC [G5U C10A C13A G17U G29U A41C], for which the self-cleavage amounted to 0.01.
As to GGCAUAGCUUAACACAGCAUGGAAAAGUGGCUGUGGCUAGACUGCC [G5U C10U G19A C23A], the self-cleavage came out at 0.02.
In the case of GGCAUAGUUCAACACAGCGUGGCAUAGUGGCUGUGGCUAGACUGCC [G5U C8U A25U] it was 0.11.
As for GGCAUAGCUCAAUACAGGGUGGCAAAGUGGCUGUGGAAAGACAGCC [G5U C13U C18G C37A U38A U43A], the figure is 0.02; as for GGCAUAGCUCAAAACAGCGUGGCAAACUGUCUGUGGCUAGACUGCC [G5U C13A G27C G30U], 0.14; as for GGCAUAGGUCAACACAGCGUGGCAAACUGGCUGUGGCUAGACUGCC [G5U C8G G27C], 0.01.
In the case of GGCAUAGUUCAACACAGCGUGGCAAAGUGGCUGUGGCUACACUACC [G5U C8U G40C G44A] it was 0.01; in that of GGCAUAGGUCAACACAGCGUGGCAAAGUCGCUGUGGCUAGACUGCC [G5U C8G G29C], 0.01; in that of GGCAUAGCUCAACAAAACGUGGAAAAGUGACUGUCGCUAAACUGCC [G5U C15A G17A C23A G30A G35C G40A], 0.06.
Take GGCAUAGCUAAACACAGCGUAGCAAAGUCGCUGUGGCUAGACUGCC [G5U C10A G21A G29C]: the self-cleavage came out at 0.58.
Regarding GGCAUAGCUGACCACAGCGUGGCAAAGUGGCUGUGGCUAGACUGCC [G5U C10G A12C], the self-cleavage was found to be 0.01.
As for GGCAUAGUUCAACACAGCGUGGCAAAGUGGCUCUGGCUAGACUGCC [G5U C8U G33C], the figure is 0.09.
On to GGCAUAGCUCAACAUCGCGUUGCGAAGUGGCUGUGGCUAGACUGCC [G5U C15U A16C G21U A24G], for which the self-cleavage turned out to be 0.04.
As to GGCAUAGCUCAAAACAGCGUGGCAGAGUGGCUGUGGCUAGACUGCC [G5U C13A A25G], the self-cleavage came out at 0.02.
As for GGCAUAGCUGAACGCAGCGUGGCAAAGUGGCUGGUGCUAUACUGCC [G5U C10G A14G U34G G35U G40U], the figure is 0.
As for GGCAUAGCUUAACUCAGCGUGGCAAAGUGGCUGUGGCUCGACUGCC [G5U C10U A14U A39C], the figure is 0.04.
In the case of GGCAUAGCUCAACAGAGCGUGGCAAAGUGGCUGUGGCAAGACAGCC [G5U C15G U38A U43A] it was 0.01.
As to GGCAUAGCUGAACACAGCAUGGCAAAGUGGCUGUGGCUAGAUUGCC [G5U C10G G19A C42U], the self-cleavage amounted to 0.03.
For the variant GGCAUAGCUCAACAAAGCGUGGCAAAGUGGCUGUGGCUAGACUUCC [G5U C15A G44U], the self-cleavage was 0.05.
As for GGCAUAGCUCAACAAAACGUGGCAAAGUGGCUGUGGCCAGACUGCC [G5U C15A G17A U38C], the figure is 0.06.
As for GGCAUAGCUUAACACAGCGUGGCAAAGUGGAUGUGGCUAGACUGCC [G5U C10U C31A], the figure is 0.02; as for GGCAUAGCUCAACAAAGCGUGGCAAAGUGCGUGUGGCUAGACUGCC [G5U C15A G30C C31G], 0.03; as for GGCAUAGCUCAAUACAGCGUGGCAAAGUGGCUGUAGAGAGACUGCC [G5U C13U G35A C37A U38G], 0.02.
For GGCAUAGCUCAACACAGAGUGGCAAAGUGGAUGUGGCUAGACGGCC [G5U C18A C31A U43G], the self-cleavage was determined as 0.01.
Take GGCAUAGCUGGACACAGCGUGGCAAAGUGUCUGUGGAUAGACUGCC [G5U C10G A11G G30U C37A]: the self-cleavage was 0.01.
Take GGCAUAGCUGAGCACAGCGUGGCAAAGUGGCUGUGGAUAGACUGCC [G5U C10G A12G C37A]: the self-cleavage was found to be 0.
Take GGCAUAGCUCAACAUAGCUUGGCAAAGUGGCUGUGGCGAGACUGCC [G5U C15U G19U U38G]: the self-cleavage turned out to be 0.02.
With GGCAUAGCUGAACACAGCGUGGCAAAGUGACUGUGGCUAGUCUGCC [G5U C10G G30A A41U], the self-cleavage was determined as 0.02.
On to GGCAUAGCUCAAGACAGCGUGGCAAAGUGGCUGUGGGUAGACUGUC [G5U C13G C37G C45U], for which the self-cleavage amounted to 0.02.
As to GGCAUAGCUAAACACAGCGUGGCAAAGUGGCUGUAGCUAUACUGCC [G5U C10A G35A G40U], the self-cleavage worked out at 0.03.
GGCAUAGCUCAAUACAGCGUGGCAAAGUGACUGUGGCUAGACUGCC [G5U C13U G30A]: the self-cleavage worked out at 0.09.
